Reference: PubChem BioAssay AID463173 (ICCB-Longwood Screening Facility, Harvard Medical School, 2010)
In all, about 52,000 compounds went through this assay and about 1,700 (3.3%) were called active. Rule as the data show it: active = survival mostly below about 52% (no sharp cut-off); inactive = mostly above about 56%. Some of the results follow.

System: Wild type
Assay: growth inhibition of S. aureus wild type versus tarO mutant, primary screen, teichoic acid synthesis inhibitors, RN4220, OD600 (AID 463173)
Settings: S. aureus RN4220 wild type/DeltatarO growth, OD600, 18 h, active compounds read low, screened at 18.75 µg/mL (by protocol)

Structure (SMILES) | survival
Cc1cccc(CSc2nc3c([nH]c4ccccc43)c(=O)n2C)c1 | inactive: 69%
CCCCC12CN3CC(C)(CN(C1)C3c1c[nH]c3ccccc13)C2=O (configuration not stated) | inactive: 82%
CCCCC(CC)CNC(=O)Cc1ccc(-n2c(=O)[nH]c3ccccc3c2=O)cc1 (configuration not stated) | inactive: 94%
CCOc1ccc(CC(=O)Nc2c(C(=O)c3ccccc3)oc3ccc(Cl)cc23)cc1OCC | inactive: 69%
C/C(CC(O)c1ccc2ccccc2n1)=N/O (configuration not stated) | inactive: 105%
CC(=O)N1c2ccc(S(=O)(=O)Nc3ccc(C)c(Cl)c3)cc2CC1C (configuration not stated) | inactive: 117%
COc1ccc(N2CCN(S(=O)(=O)c3ccc(-c4coc(C)n4)cc3)CC2)cc1 | inactive: 70%
Cc1cc(Nc2ccc(F)cc2F)nc(-n2nc(C)cc2C)n1 | inactive: 59%
CCc1cc2c(cc3c(=O)n(CCCC(=O)NCc4cccc(Br)c4)ncn32)s1 | inactive: 74%
COc1cc2c(cc1OC)n(CC(=O)c1cc(C)ccc1C)c(=O)n1nc(CCn3nc(C)cc3C)nc21 | inactive: 71%
Cc1c(CCNC(=O)c2ccc(C(C)(C)C)cc2)sc2nc(-c3ccc(F)cc3)nn12 | inactive: 105%
CC1=C(C(=O)Nc2cccnc2)C(c2ccc(C)cc2)n2nc(SCc3ccccc3F)nc2N1 (configuration not stated) | inactive: 84%
CNS(=O)(=O)c1cn(CC(=O)N2CCN(c3ccc(C(C)=O)cc3)CC2)cc1S(=O)(=O)NC | active: 10%
Cc1ccc(NC(=O)C(CC(C)C)N2Cc3ccccc3C2=O)cc1F (configuration not stated) | active: -6%
CN1CCN(c2nc(C#N)c(C#N)nc2C(C#N)=C2Nc3ccccc3N2)CC1 | inactive: 102%
Cc1ccc(-n2ncc(C(=O)NCc3ccc4c(c3)OCO4)c2C2CCN(C(=O)OC(C)(C)C)CC2)c(C)c1 | inactive: 81%
COc1ccc(CCNC(=O)CSc2cn(CCNC(=O)c3c(F)cccc3F)c3ccccc23)cc1OC | inactive: 68%
CN(C)c1ccc(NC(=O)Cn2c(SCc3ccc(F)cc3)nc3ccncc32)cc1 | inactive: 98%
COC(=O)c1ccc(NC(=O)c2cc(S(=O)(=O)N3CCOCC3)cn2C)cc1 | inactive: 84%
Cc1ccccc1OCC(=O)Nc1ccc(S(=O)(=O)N(Cc2ccccc2)c2ccccc2)cc1 | inactive: 82%
CC(=O)Nc1ccc(NS(=O)(=O)c2c(C(=O)N3CCCCCC3)c(C)n(C)c2C)cc1 | inactive: 65%
Cc1ccc(C(=O)COC(=O)CCC(=O)Nc2ccc(Oc3ccccc3)cc2)cc1 | inactive: 90%

Structure (SMILES) | survival
COc1ccc(Cn2c(=O)c3oc4ccccc4c3n(CC(=O)Nc3c(C)cccc3C)c2=O)cc1 | inactive: 89%
NC(=O)c1ccc(NC(=O)c2ccccc2C(=O)O)cc1 | inactive: 112%
COc1ccc(-c2nc3c(c(SCc4ccc(Br)cc4)n2)Cc2c(CO)cnc(C)c2O3)cc1 | inactive: 88%
Cc1ccc(OCCSc2nnc(-c3cccs3)o2)cc1 | inactive: 77%
Cc1oc2cc3oc(=O)c(CCC(=O)NCCc4ccccc4F)c(C)c3cc2c1C | inactive: 113%
CCC(=O)N1c2ccccc2CC1C(=O)NCc1ccc(CC)cc1 (configuration not stated) | inactive: 143%
COc1cccc(NC(=O)CCN2CC(C)CC(C)C2)c1 (configuration not stated) | inactive: 111%
CNC(=S)N1CCN(c2nc3ccccc3s2)CC1 | inactive: 108%
CN1CCN(C(=O)c2cnn(-c3ccc(F)cc3F)c2C2CCN(C(=O)OC(C)(C)C)CC2)CC1 | inactive: 87%
COc1ccc(NC(=O)Nc2nnc(N3CCCC3)s2)cc1 | inactive: 80%
Cc1cc(C)cc(N(CC(=O)NCCc2ccc(Cl)cc2)S(=O)(=O)c2c(C)noc2C)c1 | inactive: 85%
Cc1ccc2c(c1)c1c(c(=O)n(-c3ccccc3)c(=O)n1Cc1ccccc1C)n2C | inactive: 68%
Cc1ccc(NC(=O)c2c(C)oc3ccc(O)c(CN4CCOCC4)c23)cc1 | inactive: 81%
Cc1ccc2c(=O)cc(C(=O)N(Cc3ccc(C(C)(C)C)cc3)C3CCS(=O)(=O)C3)oc2c1 (configuration not stated) | inactive: 68%
Oc1ccc(-c2nc3ccc(Cl)cn3c2Nc2ccc(Cl)cc2)cc1 | inactive: 20%
CCOC(=O)/C(C#N)=C\c1ccc(N(C)C)cc1 | inactive: 123%
O=C(c1cc2c(Cl)nc3ccccc3c2s1)N1CCCCC1 | inactive: 58%
Cc1ccccc1NC(=O)Cn1nc(-c2ccccc2)nc(Cc2ccccc2)c1=O | inactive: 70%
Cc1ccc(CNS(=O)(=O)c2cnc(N)nc2)cc1 | inactive: 81%
COc1ccc(Cn2ccc3nc(C)c(C(=O)NCc4ccc(SC)cc4)cc3c2=O)cc1 | inactive: 79%
CCc1ccc2ncc3c(-c4ccc(C)cc4)nn(CC(=O)NCc4ccccc4)c3c2c1 | inactive: 65%
COc1ccc(CNC(=O)CSc2nnc(C)c3c(C)n(-c4ccccc4)nc23)c(OC)c1 | inactive: 81%

Structure (SMILES) | survival
COc1ccc(Nc2nc(Cl)nc(NCCO)n2)cc1 | inactive: 107%
O=C(CSc1nc2ccccc2n1Cc1cccc(F)c1)NCc1ccccc1 | inactive: 72%
COc1ccc(-c2nc3sc(CCNC(=O)C(=O)Nc4ccc(OC)c(OC)c4)c(C)n3n2)cc1 | inactive: 69%
COc1ccc(Br)cc1Cn1nnc(C(=O)Nc2cccc(SC)c2)c1N | inactive: 68%
Cc1ccccc1Cn1c2ccccc2c2cnn(CC(=O)NC3CCCCCC3)c(=O)c21 | inactive: 88%
CC(C)CCNC(=O)Cn1nc(N2CCN(c3ccccc3)CC2)ccc1=O | inactive: 70%
CCOC(=O)c1sc2ncn(CC(=O)Nc3ccc(OC)c(Cl)c3)c(=O)c2c1C | inactive: 78%
CN(CC(=O)Nc1cccc(F)c1)S(=O)(=O)c1ccc2c(c1)n(C)c(=O)c(=O)n2C | inactive: 100%
CN1CCN(C(=O)c2ccc3c(c2)N(Cc2ccc(C(F)(F)F)cc2)C(=O)c2ccccc2S3)CC1 | inactive: 99%
Cc1ccc(NC(=O)c2ccc(CN3CC(=O)N4CCCCC4C3=O)cc2)c(Cl)c1 (configuration not stated) | inactive: 133%
COc1ccc(S(=O)(=O)NCc2nc(-c3ccccc3)no2)cc1 | inactive: 77%
CSc1cccc(NC(=O)c2cc3c(COC(C)=O)cnc(C)c3oc2=O)c1 | inactive: 134%
CC(=O)c1cccc(NC(=O)CSc2ncc3c(n2)-c2cc(Cl)ccc2N(Cc2ccccc2)S3(=O)=O)c1 | inactive: 63%
COc1cc(CNC(=O)c2cc3n(n2)CCCN(Cc2cccc(F)c2)C3=O)cc(OC)c1OC | inactive: 71%
NC(=O)C1CCN(C(=O)CC(c2ccccc2)c2ccccc2)CC1 | inactive: 104%
O=C(CC(c1cccs1)N1Cc2ccccc2C1=O)Nc1ccc(F)cc1 (configuration not stated) | inactive: 91%
COc1ccc(-n2nc3c(N4CCCC(C(=O)NCc5ccccc5C)C4)nnc(C)c3c2C)cc1 (configuration not stated) | inactive: 72%
O=C(NCCn1cc(SCc2ccc(C(F)(F)F)cc2)c2ccccc21)c1cccs1 | inactive: 108%
N#CCOc1nc(OCC#N)nc(OCC#N)n1 | active: -1%
Cc1nnc(SCC(=O)NCc2cccc(F)c2)c2nn(-c3ccccc3)c(C)c12 | inactive: 76%
Cc1cccc(NC(=O)CSc2nc(=O)n(CCN3CCOCC3)c3c2CCC3)c1 | inactive: 88%
CNC(=O)C1CCC(Cn2c(=O)c3sccc3n(CC(=O)Nc3ccc(C)cc3C)c2=O)CC1 (configuration not stated) | inactive: 79%

Structure (SMILES) | survival
Cc1ccc2nc(-c3ccc(N4CCOCC4)cc3)c(Nc3ccccc3C)n2c1 | inactive: 73%
O=C(CN1C(=O)COc2ccc(S(=O)(=O)NC3CCCC3)cc21)Nc1ccc(F)c(Cl)c1 | inactive: 146%
Cc1ccc(-n2ncc(C(=O)NCCN3CCc4ccccc4C3)c2C2CCN(C(=O)OC(C)(C)C)CC2)c(C)c1 | inactive: 75%
Cc1[nH]c2ccccc2c1C1(O)C(=O)N(Cc2ccccc2)c2ccc(Br)cc21 (configuration not stated) | active: 14%
CN(c1nnc(NC(=O)Nc2ccc(Br)cc2)s1)C1CCCCC1 | inactive: 62%
COc1ccccc1CNc1ncnc2onc(-c3ccc(Cl)cc3)c12 | inactive: 86%
COc1cccc(NC(=O)CN2C(=O)COc3ccc(S(=O)(=O)N4CCOCC4)cc32)c1 | inactive: 93%
COC(=O)COc1ccc(S(=O)(=O)N2CCN(c3ccccc3F)CC2)cc1Cl | inactive: 115%
Cc1ccc(NC(=O)Nc2csc3c2CCCC3)c(C)c1 | inactive: 83%
CCCS(=O)(=O)NCCc1sc2nc(-c3ccc(Cl)cc3)nn2c1C | inactive: 81%
CCOC(=O)c1c(NC(=O)c2cc(=O)c3c(C)cc(C)cc3o2)sc(C)c1C | inactive: 86%
NC(=O)C1CCN(C(=O)c2ccccc2NC(=O)c2nsc3ccccc23)CC1 | inactive: 134%
COc1ccccc1Nc1nn2c(=O)c3ccc(C(=O)NC4CCCCC4)cc3nc2s1 | inactive: 83%
CCOc1ccc(N(CC(=O)NCc2ccc(C)cc2)S(=O)(=O)c2c(C)[nH]c(=O)[nH]c2=O)cc1 | inactive: 78%
Brc1ccc(-c2csc(-c3nc(-c4ccc(Br)s4)cs3)n2)cc1 | inactive: 78%
CCOC(=O)N1CCc2c(sc(NCc3ccc(N(C)C)cc3)c2C(=O)Nc2ccccc2OCC)C1 | inactive: 70%
O=C(Oc1ccccc1OC(=O)N1CCCCC1)N1CCCCC1 | inactive: 101%
CCN(CC)CCNC(=O)Cn1cnc2sc(C)c(S(=O)(=O)N3CCN(c4ccccc4OC)CC3)c2c1=O | inactive: 72%
CCN1CCN(C(c2cccc(OC)c2)c2c(O)cc(C)n(Cc3ccco3)c2=O)CC1 (configuration not stated) | inactive: 128%
CCc1ccc(NC(=O)c2sc3nc(-c4ccccc4)cn3c2C)cc1 | inactive: 153%
CC(NC(=O)c1ccc(Cn2c(SCc3ccccc3)nc3cccnc32)cc1)c1ccccc1 (configuration not stated) | inactive: 59%
